# The list shows a part of the results.
# B1: Neuropilin-1 (Homo sapiens), O14786 (protein)
# chain: FKCMEALGMESGEIHSDQITASSQYSTNWSAERSRLNYPENGWTPGEDSYREWIQVDLGLLRFVTAVGTQGAISKETKKKYYVKTYKIDVSSNGEDWITIKEGNKPVLFQGNTNPTDVVVAVFPKPLITRFVRIKPATWETGISMRFEVYGCKITDYPCSGMLGMVSGLISDSQITSSNQGDRNWMPENIRLVTSRSGWALPPAPHSYINEWLQIDLGEEKIVRGIIIQGGKHRENKVFMRKFKIGYSNNGSDWKMIMDDSKRKAKSFEGNNNYDTPELRTFPALSTRFIRIYPERATHGGLGLRMELLGCEVE
# Assays:
# Experiment in all cases: glycan array binding signal (z-score within array); higher = stronger binding
# Settings in all cases: glycan notation: IUPAC condensed, linker removed
# [1] = target: GlcNAc(b1-4)GlcNAc(b1-4)GlcNAc
# Summary of the method: (§1)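 The binding signal is a Z-score computed within each array. Data were drawn from 3228 arrays in the Consortium for Functional Glycomics database, restricted to those with a known protein sequence. Scores were averaged over arrays of the same protein sequence at different concentrations or buffers, and over linkers, and negative values can be taken as non-binding.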
# [2] = target: GlcNAc(b1-4)GlcNAc(b1-4)GlcNAc(b1-4)GlcNAc(b1-4)GlcNAc
# Summary of the method: as §1
# [3] = target: GlcNAc(b1-4)GlcNAc(b1-4)GlcNAc(b1-4)GlcNAc(b1-4)GlcNAc(b1-4)GlcNAc
# Summary of the method: as §1
# [4] = target: GlcNAc(b1-4)[GlcNAc(b1-6)]GalNAc
# Summary of the method: as §1
# [5] = target: GlcNAc(b1-6)Gal(b1-4)GlcNAc
# Summary of the method: as §1
# [6] = target: GlcNAc(b1-6)GalNAc
# Summary of the method: as §1
# [7] = target: GlcNAc3Prop(b1-4)GlcNAc
# Summary of the method: as §1
# [8] = target: GlcNAc6S(b1-3)Gal(b1-4)GlcNAc
# Summary of the method: as §1
# [9] = target: Kdn(a2-3)Gal(b1-3)GalNAc
# Summary of the method: as §1
# [10] = target: Kdn(a2-3)Gal(b1-3)GlcNAc
# Summary of the method: as §1
# [11] = target: Kdn(a2-3)Gal(b1-4)Glc
# Summary of the method: as §1
# [12] = target: Kdn(a2-3)Gal(b1-4)GlcNAc
# Summary of the method: as §1
# [13] = target: Kdn(a2-3)Gal(b1-4)[Fuc(a1-3)]GlcNAc
# Summary of the method: as §1
# [14] = target: Kdn(a2-6)Gal(b1-4)GlcNAc
# Summary of the method: as §1
# [15] = target: Man(a1-2)Man(a1-2)Man(a1-3)Man
# Summary of the method: as §1
# [16] = target: Man(a1-2)Man(a1-2)Man(a1-6)[Man(a1-3)]Man
# Summary of the method: as §1
# [17] = target: Man(a1-2)Man(a1-3)Man
# Summary of the method: as §1
# [18] = target: Man(a1-2)Man(a1-3)[Man(a1-2)Man(a1-6)]Man
# Summary of the method: as §1
# [19] = target: Man(a1-2)Man(a1-3)[Man(a1-2)Man(a1-6)]Man(a1-6)[Man(a1-2)Man(a1-2)Man(a1-3)]Man
# Summary of the method: as §1
# [20] = target: Man(a1-2)Man(a1-3)[Man(a1-2)Man(a1-6)]Man(a1-6)[Man(a1-2)Man(a1-2)Man(a1-3)]Man(b1-4)GlcNAc(b1-4)GlcNAc
# Summary of the method: as §1
# [21] = target: Man(a1-2)Man(a1-3)[Man(a1-6)]Man(a1-6)[Man(a1-2)Man(a1-3)]Man(b1-4)GlcNAc(b1-4)GlcNAc
# Summary of the method: as §1
# [22] = target: Man(a1-2)Man(a1-6)[Man(a1-3)]Man(a1-6)[Man(a1-2)Man(a1-2)Man(a1-3)]Man
# Summary of the method: as §1
# [23] = target: Man(a1-2)Man(a1-6)[Man(a1-3)]Man(a1-6)[Man(a1-2)Man(a1-2)Man(a1-3)]Man(b1-4)GlcNAc(b1-4)GlcNAc
# Summary of the method: as §1
# [24] = target: Man(a1-3)[Man(a1-6)]Man
# Summary of the method: as §1
# [25] = target: Man(a1-3)[Man(a1-6)]Man(a1-6)[Man(a1-2)Man(a1-3)]Man(b1-4)GlcNAc(b1-4)GlcNAc
# Summary of the method: as §1
# [26] = target: Man(a1-3)[Man(a1-6)]Man(a1-6)[Man(a1-3)]Man
# Summary of the method: as §1
# [27] = target: Man(a1-3)[Man(a1-6)]Man(a1-6)[Man(a1-3)]Man(b1-4)GlcNAc(b1-4)GlcNAc
# Summary of the method: as §1
# [28] = target: Man(a1-3)[Man(a1-6)]Man(b1-4)GlcNAc(b1-4)GlcNAc
# Summary of the method: as §1
# [29] = target: Man(a1-6)Man
# Summary of the method: as §1
# [30] = target: Man(b1-4)GlcNAc
# Summary of the method: as §1
# [31] = target: Neu5Ac(a2-3)Gal
# Summary of the method: as §1
# [32] = target: Neu5Ac(a2-3)Gal(b1-3)GalNAc
# Summary of the method: as §1
# [33] = target: Neu5Ac(a2-3)Gal(b1-3)GalNAc(b1-3)Gal(a1-4)Gal(b1-4)Glc
# Summary of the method: as §1
# [34] = target: Neu5Ac(a2-3)Gal(b1-3)GalNAc(b1-3)Gal(b1-4)GlcNAc
# Summary of the method: as §1
# [35] = target: Neu5Ac(a2-3)Gal(b1-3)GalNAc(b1-4)[Neu5Ac(a2-3)]Gal(b1-4)Glc
# Summary of the method: as §1
# [36] = target: Neu5Ac(a2-3)Gal(b1-3)GalNAc6S
# Summary of the method: as §1
# [37] = target: Neu5Ac(a2-3)Gal(b1-3)GlcNAc
# Summary of the method: as §1
# [38] = target: Neu5Ac(a2-3)Gal(b1-3)GlcNAc(b1-3)Gal(b1-3)GlcNAc
# Summary of the method: as §1
# [39] = target: Neu5Ac(a2-3)Gal(b1-3)GlcNAc6S
# Summary of the method: as §1
# [40] = target: Neu5Ac(a2-3)Gal(b1-3)[Fuc(a1-4)]GlcNAc
# Summary of the method: as §1
# [41] = target: Neu5Ac(a2-3)Gal(b1-3)[Fuc(a1-4)]GlcNAc(b1-3)Gal(b1-3)[Fuc(a1-4)]GlcNAc
# Summary of the method: as §1
# [42] = target: Neu5Ac(a2-3)Gal(b1-3)[Fuc(a1-4)]GlcNAc(b1-3)Gal(b1-4)[Fuc(a1-3)]GlcNAc
# Summary of the method: as §1
# [43] = target: Neu5Ac(a2-3)Gal(b1-3)[Neu5Ac(a2-3)Gal(b1-4)]GlcNAc
# Summary of the method: as §1
# [44] = target: Neu5Ac(a2-3)Gal(b1-3)[Neu5Ac(a2-6)]GalNAc
# Summary of the method: as §1
# [45] = target: Neu5Ac(a2-3)Gal(b1-4)Glc
# Summary of the method: as §1
# [46] = target: Neu5Ac(a2-3)Gal(b1-4)GlcNAc
# Summary of the method: as §1
# [47] = target: Neu5Ac(a2-3)Gal(b1-4)GlcNAc(b1-2)Man(a1-3)[GlcNAc(b1-2)Man(b1-4)GlcNAc(b1-2)Man(a1-6)]Man(b1-4)GlcNAc(b1-4)GlcNAc
# Summary of the method: as §1
# [48] = target: Neu5Ac(a2-3)Gal(b1-4)GlcNAc(b1-2)Man(a1-3)[Neu5Ac(a2-6)Gal(b1-4)GlcNAc(b1-2)Man(a1-6)]Man(b1-4)GlcNAc(b1-4)GlcNAc
# Summary of the method: as §1
# [49] = target: Neu5Ac(a2-3)Gal(b1-4)GlcNAc(b1-3)Gal(b1-3)GlcNAc
# Summary of the method: as §1
# [50] = target: Neu5Ac(a2-3)Gal(b1-4)GlcNAc(b1-3)Gal(b1-4)GlcNAc
# Summary of the method: as §1
# [51] = target: Neu5Ac(a2-3)Gal(b1-4)GlcNAc(b1-3)Gal(b1-4)GlcNAc(b1-3)Gal(b1-4)GlcNAc
# Summary of the method: as §1
# [52] = target: Neu5Ac(a2-3)Gal(b1-4)GlcNAc(b1-3)Gal(b1-4)[Fuc(a1-3)]GlcNAc
# Summary of the method: as §1
# [53] = target: Neu5Ac(a2-3)Gal(b1-4)GlcNAc(b1-3)GalNAc
# Summary of the method: as §1
# [54] = target: Neu5Ac(a2-3)Gal(b1-4)GlcNAc(b1-6)[Gal(b1-3)]GalNAc
# Summary of the method: as §1
# [55] = target: Neu5Ac(a2-3)Gal(b1-4)GlcNAc(b1-6)[Neu5Ac(a2-3)Gal(b1-3)]GalNAc
# Summary of the method: as §1
# [56] = target: Neu5Ac(a2-3)Gal(b1-4)GlcNAc6S
# Summary of the method: as §1
# [57] = target: Neu5Ac(a2-3)Gal(b1-4)[Fuc(a1-3)]GlcNAc
# Summary of the method: as §1
binder,measurement,setting,value
B1,glycan array binding signal (z-score),[1],-0.26
same,glycan array binding signal (z-score),[2],-0.269
same,glycan array binding signal (z-score),[3],-0.218
same,glycan array binding signal (z-score),[4],-0.237
same,glycan array binding signal (z-score),[5],-0.229
same,glycan array binding signal (z-score),[6],-0.297
same,glycan array binding signal (z-score),[7],-0.142
same,glycan array binding signal (z-score),[8],-0.282
same,glycan array binding signal (z-score),[9],-0.206
same,glycan array binding signal (z-score),[10],-0.21
same,glycan array binding signal (z-score),[11],-0.206
same,glycan array binding signal (z-score),[12],-0.083
same,glycan array binding signal (z-score),[13],0.116
same,glycan array binding signal (z-score),[14],-0.021
same,glycan array binding signal (z-score),[15],-0.181
same,glycan array binding signal (z-score),[16],-0.184
same,glycan array binding signal (z-score),[17],-0.147
same,glycan array binding signal (z-score),[18],-0.276
same,glycan array binding signal (z-score),[19],-0.321
same,glycan array binding signal (z-score),[20],-0.222
same,glycan array binding signal (z-score),[21],-0.189
same,glycan array binding signal (z-score),[22],-0.287
same,glycan array binding signal (z-score),[23],-0.27
same,glycan array binding signal (z-score),[24],-0.292
same,glycan array binding signal (z-score),[25],-0.269
same,glycan array binding signal (z-score),[26],-0.311
same,glycan array binding signal (z-score),[27],-0.196
same,glycan array binding signal (z-score),[28],-0.133
same,glycan array binding signal (z-score),[29],-0.262
same,glycan array binding signal (z-score),[30],-0.289
same,glycan array binding signal (z-score),[31],-0.3
same,glycan array binding signal (z-score),[32],-0.216
same,glycan array binding signal (z-score),[33],-0.237
same,glycan array binding signal (z-score),[34],-0.255
same,glycan array binding signal (z-score),[35],-0.298
same,glycan array binding signal (z-score),[36],-0.311
same,glycan array binding signal (z-score),[37],-0.256
same,glycan array binding signal (z-score),[38],-0.319
same,glycan array binding signal (z-score),[39],-0.162
same,glycan array binding signal (z-score),[40],-0.283
same,glycan array binding signal (z-score),[41],-0.172
same,glycan array binding signal (z-score),[42],0.065
same,glycan array binding signal (z-score),[43],-0.279
same,glycan array binding signal (z-score),[44],-0.177
same,glycan array binding signal (z-score),[45],-0.196
same,glycan array binding signal (z-score),[46],-0.243
same,glycan array binding signal (z-score),[47],-0.246
same,glycan array binding signal (z-score),[48],-0.2
same,glycan array binding signal (z-score),[49],-0.303
same,glycan array binding signal (z-score),[50],-0.304
same,glycan array binding signal (z-score),[51],-0.277
same,glycan array binding signal (z-score),[52],-0.204
same,glycan array binding signal (z-score),[53],-0.287
same,glycan array binding signal (z-score),[54],-0.245
same,glycan array binding signal (z-score),[55],-0.261
same,glycan array binding signal (z-score),[56],-0.064
same,glycan array binding signal (z-score),[57],-0.255
